According to patent publication US8883449B2, “Single-chain insulin” (Novo Nordisk A/S, priority 2003, dated 2014):
At least one peptide structure holds a part that was inferred or is arguable (an end, a ring closure or a residue). Where a SMILES comes first, the peptide text is derived from it. Bridges are numbered along the chain shown (N, C = ends). Where no end group is shown, it is not given here.

target: human insulin receptor (Homo sapiens, UniProt P06213); assay: Insulin receptor binding of single-chain insulins (SPA antibody capture assay), relative to human insulin; conditions: Table 1
Sequence (P06213 28-746 isoform P06213-2 limits assumed): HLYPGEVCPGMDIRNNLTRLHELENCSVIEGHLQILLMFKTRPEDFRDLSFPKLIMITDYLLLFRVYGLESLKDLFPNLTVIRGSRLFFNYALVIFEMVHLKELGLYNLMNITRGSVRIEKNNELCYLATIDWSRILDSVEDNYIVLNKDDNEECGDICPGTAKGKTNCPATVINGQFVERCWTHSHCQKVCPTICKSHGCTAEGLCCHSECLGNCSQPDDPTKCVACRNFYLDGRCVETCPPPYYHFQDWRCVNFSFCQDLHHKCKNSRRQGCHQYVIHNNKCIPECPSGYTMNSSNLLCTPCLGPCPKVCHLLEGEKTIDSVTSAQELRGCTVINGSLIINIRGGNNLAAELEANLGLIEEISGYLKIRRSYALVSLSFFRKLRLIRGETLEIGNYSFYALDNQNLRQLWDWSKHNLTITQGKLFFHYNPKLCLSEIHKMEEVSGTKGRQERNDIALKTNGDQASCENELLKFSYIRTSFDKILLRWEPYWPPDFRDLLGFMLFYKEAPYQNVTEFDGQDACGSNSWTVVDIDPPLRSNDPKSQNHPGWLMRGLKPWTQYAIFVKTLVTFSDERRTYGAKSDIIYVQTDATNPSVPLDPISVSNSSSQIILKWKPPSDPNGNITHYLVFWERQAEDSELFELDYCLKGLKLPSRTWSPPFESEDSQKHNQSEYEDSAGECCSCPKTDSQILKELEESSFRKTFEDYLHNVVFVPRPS
Sequence (P06213 763-1382 partner limits assumed): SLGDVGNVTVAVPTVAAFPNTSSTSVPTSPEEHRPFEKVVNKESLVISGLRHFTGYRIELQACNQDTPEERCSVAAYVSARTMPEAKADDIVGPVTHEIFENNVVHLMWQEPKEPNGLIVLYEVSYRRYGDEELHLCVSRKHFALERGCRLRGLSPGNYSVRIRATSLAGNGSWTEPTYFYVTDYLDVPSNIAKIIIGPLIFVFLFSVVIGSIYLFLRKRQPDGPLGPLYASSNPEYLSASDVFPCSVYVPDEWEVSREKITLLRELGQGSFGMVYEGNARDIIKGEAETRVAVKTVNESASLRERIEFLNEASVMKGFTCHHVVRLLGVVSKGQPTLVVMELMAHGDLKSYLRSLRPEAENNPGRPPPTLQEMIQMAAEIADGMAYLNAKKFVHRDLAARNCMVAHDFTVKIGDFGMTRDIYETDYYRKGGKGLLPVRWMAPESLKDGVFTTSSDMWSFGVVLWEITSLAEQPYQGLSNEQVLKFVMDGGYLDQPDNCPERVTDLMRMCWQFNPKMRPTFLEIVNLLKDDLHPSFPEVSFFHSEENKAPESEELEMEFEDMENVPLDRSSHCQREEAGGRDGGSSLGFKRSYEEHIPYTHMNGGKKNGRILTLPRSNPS

| Molecule | IR (human insulin receptor binding relative to that of human insulin) [%] |
| --- | --- |
| FVNQHLCGSHLVEALYLVCGERGFFYTPAVGLSSGQGIVEQCCTSICSLYQLEQYCNK (disulfide 7-43, 19-56, 42-47) [compound 1896] | 38 |
| FVNQHLCGSHLVEALYLVCGEKGFFYTPAVGLSSGQGIVEQCCTSICSLYQLEQYCN (disulfide 7-43, 19-56, 42-47) [compound 1869] | 69 |
| FVNQHLCGSHLVEALYLVCGERGFFYTPKAGLGSGKGIVEQCCTSICSLYQLEQYCG (disulfide 7-43, 19-56, 42-47) [compound 1764] | 120 |
| FVKQHLCGSHLVEALYLVCGERGFFYTPKTGLGSGKGIVEQCCTSICSLYQLEQYCG (disulfide 7-43, 19-56, 42-47) [compound 1864] | 301 |
| VQQHLCGSQLVEALYLVCGERGFFYTPKTGLGSGQGIVEQCCTSICSLYQLEQYCN (disulfide 6-42, 18-55, 41-46) [compound 1894] | 38 |
| GVQQHLCGSHLVEALYLVCGERGFFYTPKAGRGSGKGIVEQCCTSICSLYQLEQYCG (disulfide 7-43, 19-56, 42-47) [compound 1808] | 86 |
| CC[C@H](C)[C@@H]1NC(=O)CNC(=O)[C@H](CCCCN)NC(=O)CNC(=O)[C@H](CO)NC(=O)[C@H](CO)NC(=O)[C@H](CO)NC(=O)CNC(=O)[C@H](C(C)C)NC(=O)[C@@H]2CCCN2C(=O)[C@H](CCCCN)NC(=O)[C@@H]2CCCN2C(=O)[C@H]([C@@H](C)O)NC(=O)[C@H](Cc2ccc(O)cc2)NC(=O)[C@H](Cc2ccccc2)NC(=O)[C@H](Cc2ccccc2)NC(=O)CNC(=O)[C@H](CCCNC(=N)N)NC(=O)[C@H](CCC(=O)O)NC(=O)CNC(=O)[C@@H]2CSSC[C@@H](C(=O)NCC(=O)O)NC(=O)[C@H](Cc3ccc(O)cc3)NC(=O)[C@H](CCC(N)=O)NC(=O)[C@H](CCC(=O)O)NC(=O)[C@H](CC(C)C)NC(=O)[C@H](CCC(N)=O)NC(=O)[C@H](Cc3ccc(O)cc3)NC(=O)[C@H](CC(C)C)NC(=O)[C@H](CO)NC(=O)[C@@H]3CSSC[C@H](NC(=O)[C@H](CCC(N)=O)NC(=O)[C@H](CCC(=O)O)NC(=O)[C@H](C(C)C)NC1=O)C(=O)N[C@@H](CSSC[C@H](NC(=O)[C@H](CC(C)C)NC(=O)[C@H](Cc1c[nH]cn1)NC(=O)[C@H](CCC(N)=O)NC(=O)[C@H](CC(N)=O)NC(=O)[C@@H](NC(=O)[C@@H](N)Cc1ccccc1)C(C)C)C(=O)NCC(=O)N[C@@H](CO)C(=O)N[C@@H](Cc1c[nH]cn1)C(=O)N[C@@H](CC(C)C)C(=O)N[C@@H](C(C)C)C(=O)N[C@@H](CCC(=O)O)C(=O)N[C@@H](C)C(=O)N[C@@H](CC(C)C)C(=O)N[C@@H](Cc1ccc(O)cc1)C(=O)N[C@@H](CC(C)C)C(=O)N[C@@H](C(C)C)C(=O)N2)C(=O)N[C@@H]([C@@H](C)O)C(=O)N[C@@H](CO)C(=O)N[C@@H]([C@@H](C)CC)C(=O)N3 [compound 1769033] (H-FVNQHLCGSHLVEALYLVCGERGFFYTPKPVGSSSGKGIVEQCCTSICSLYQLEQYCG-OH; disulfide 7-44, 19-57, 43-48) | 37 |
| FVNQHLCGSHLVEALYLVCGERGFFYTPAVGLSSGQGIVEQCCTSICSLYQLEKYCN (disulfide 7-43, 19-56, 42-47) [compound 1871] | 82 |
| FVNQHLCGSHLVEALYLVCGERGFFYTPKVGSSSGKGIVEQCCTSICSLYQLEQYCG (disulfide 7-43, 19-56, 42-47) [compound 1744] | 80 |
| FVNQHLCGSHLVEALYLVCGERGFFYTPKGVGSSSGKGIVEQCCTSICSLYQLEQYCG (disulfide 7-44, 19-57, 43-48) [compound 1769053] | 37 |
| FVNQHLCGSHLVEALYLVCGERGFFYTPKAWSGSGKGIVEQCCTSICSLYQLEQYCG (disulfide 7-43, 19-56, 42-47) [compound 1796] | 102 |
